This is one part of the list.
Test system: T1, C. trachomatis L2/434/Bu expressing GFP (CTL2-GFP)
T1 construct: L2/434/Bu GFP intracellular growth in HeLa cells
Parameters: species or system HeLa; C. trachomatis total inclusion area by high-content imaging, normalised to DMSO
Details: total inclusion area; 28.5 h, 10 µM; inhibitor
How it was run: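 Imaging read-out: GFP inclusions and Hoechst nuclei captured by high-content imaging after fixation. Inclusion area/number = chlamydial growth; nuclei count = host cell viability. MIC calculated per earlier method.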

SMILES | % of control remaining
CS(=O)(=O)N(Cc1cc2ccccc2nc1O)CC1CCCO1 (centres unmarked) [CBK269517] | 94.1128
CCCCN(C)c1c(CC)nc2ccc(C(=O)NC3=NC(=O)CS3)cn12 [CBK145464] | 59.9955
Cn1c(=O)c2c(nc(CN3CCN(c4ccccc4)CC3)n2Cc2ccccc2)n(C)c1=O [CBK269557] | 83.7113
Cc1cccc(CC(=O)N2CCC(Cc3ccccc3-c3ccccc3)(C(N)=O)CC2)c1 [CBK285731] | 101.675
CCC(CC)C(=O)Nc1nc(OC)cnc1-c1cc(Cl)cc(Cl)c1 [CBK145338] | 85.1896
Cc1cc(C)cc(C(=O)N2CCCC(C(=O)N3CCN(c4nccs4)CC3)C2)c1 (centres unmarked) [CBK298307] | 84.4024
Cc1cc(Cc2ccc(Cl)cc2)cc(C2CCN(C(=O)Cc3csc(C)n3)CC2)n1 [CBK286526] | 98.1735
O=C(O)c1ccc(CNC(=O)c2ccc(Cl)c(S(=O)(=O)N3CCCC3)c2)cc1 [CBK297096] | 79.3129
O=C(c1cc(-c2ccncc2)nc2ccc(Cl)cc12)N1CCN(C/C=C/c2ccccc2)CC1 [CBK267754] | 109.079
O=C(O)CCSc1nnc(-c2cccc(Br)c2)o1 [CBK286540] | 114.021
O=C(Nc1ccc2nc(SCc3ccc([N+](=O)[O-])cc3)sc2c1)c1ccccc1 [CBK263427] | 99.1233
O=C(Cn1cc(C(=O)NC2(c3ccccc3)CCCC2)ccc1=O)NC1CCCCC1 [CBK285986] | 109.992
CC(=O)Nc1ccc(Nc2nc(Br)cn3ccnc23)cc1 [CBK066338] | 123.012
O=C(COc1ccc(S(=O)(=O)NC2CCCC2)cc1)Nc1ccc2c(c1)OCCO2 [CBK266431] | 116.979
COC(=O)[C@@H](C)NC(=O)[C@H]1CN(C(=O)Nc2ccccc2)CCN1C(=O)c1cccs1 [CBK289629] | 127.802
COc1ccc(C(C)C)cc1-c1cc(NCCc2cccnc2)n2nccc2n1 [CBK037097] | 117.045
COc1cc(F)ccc1-c1ccc2ccc(NC(=O)C(C)C)nc2n1 [CBK073666] | 102.471
O=C(CC1S/C(=N/N=C/c2ccc(-c3ccc(Cl)c([N+](=O)[O-])c3)o2)NC1=O)Nc1ccccc1 (centres unmarked) [CBK264473] | 123.596
O=C(O)c1cccc(-n2nnnc2SCc2ccccn2)c1 [CBK266744] | 94.9659
CCc1nnc(SCc2ccc(CSc3nnc(CC)n3N)cc2)n1N [CBK265689] | 88.1759
CN(C)CCN(C)c1cc(-c2ccc(F)c(Cl)c2)nc2ccnn12 [CBK037230] | 125.31
CCCCNC(=O)OC1CCN(CCc2ccccc2)CC1 [CBK022839C] | 49.8343
Cc1cc2c(cc3c(=O)n(CC(=O)OC(C)C)nc(C)n32)s1 [CBK284071] | 61.8952
CC(C)(C)C(Cn1cccn1)NC(=O)CCC(=O)O (centres unmarked) [CBK286897] | 72.8696
CC(C)(C)CC(NC(=O)C1CCCN(S(C)(=O)=O)C1)c1ccccc1 (centres unmarked) [CBK304563] | 41.8193

SMILES | % of control remaining
O=C(Cc1ccccc1)N/N=C/c1cccc2cccnc12 [CBK262778] | 110.494
Cc1cnc(CNC(=O)c2cnoc2-c2ccccc2)cn1 [CBK154926] | 94.3042
Cc1cc2nc(/C(C#N)=C/c3cc(C)n(-c4ccc(C(=O)O)cc4)c3C)[nH]c2cc1C [CBK269105] | 89.4286
CCOC(=O)C1CCCN(Cc2nc3cc(Cl)ccc3c(=O)[nH]2)C1 (centres unmarked) [CBK306198] | 56.0338
O=C(NCCc1ccc(O)cc1)C1(c2ccccc2)CCCC1 [CBK149535] | 81.2168
CCOC(=O)c1cnn(-c2cc(Oc3ccccc3)ncn2)c1N [CBK098284] | 80.9328
O=C(O)C1CCC(CNC(=O)C2Cc3ccccc3CN2)CC1 (centres unmarked) [CBK286745] | 79.9475
CSCc1nc2ccccc2n1CC(=O)N(CCC#N)Cc1ccco1 [CBK305440] | 93.1138
CC(C)[C@@H](Cn1nc(C2CC2)ccc1=O)NC(=O)c1ccco1 [CBK282321] | 118.221
COC(=O)NCCc1c[nH]c2ccc(OC)cc12 [CBK084597] | 97.9439
Cc1ccc(N2C(=O)/C(=C/c3ccc(O)c(O)c3)SC2=S)cc1C [CBK262756] | 36.1826
O=C(c1cc[nH]n1)N1CCC(c2cc3ccccc3cn2)CC1 [CBK284892] | 106.476
CC1CCN(S(=O)(=O)c2ccc(Oc3ccc([N+](=O)[O-])cc3)cc2)CC1 [CBK261774] | 108.029
COc1cncc(-c2cc(NC3CCCCC3)ncn2)c1 [CBK090903] | 133.335
CC(Oc1ccc2c(c1)OCO2)C(=O)NNC(=O)Nc1cccc(Cl)c1Cl (centres unmarked) [CBK266852] | 110.506
COc1ccc(OC)c(CN2CCCN(C)CC2)c1 [CBK261554] | 108.427
CN(C(=O)c1c[nH]nc1C1CCCN(Cc2ccnc3ccccc23)C1)C1CCCCC1 (centres unmarked) [CBK286491] | 105.668
CC(NC(=O)C(C)(C)C)c1nc(-c2ccncc2)n[nH]1 (centres unmarked) [CBK104074] | 92.0403
COc1ccc(C(C)N(CCN2CCOCC2)C(=O)NCc2cccc3ccccc23)cc1OC (centres unmarked) [CBK158984] | 59.3698
O=c1n(-c2ccc(Cl)c(Cl)c2)ccn1S(=O)(=O)CCc1cccc2ccccc12 [CBK106668] | 111.066
NC1=C2NC(c3cccc(C(=O)O)c3)=NN2N(c2ccccc2)N1 [CBK093663] | 102.022
CC(OC(=O)N1CCN(c2ccccc2)CC1)c1ccccc1 (centres unmarked) [CBK200243] | 101.067
COc1ccc(C2CC(c3ccccc3)=NN2c2ccc(S(N)(=O)=O)cc2)cc1OC (centres unmarked) [CBK268193] | 105.724
O=C(C1=C(O)C(=O)N(CCCn2ccnc2)C1c1ccncc1)c1ccccc1 (centres unmarked) [CBK264527] | 99.8799
O=C(Nc1cccc2nsnc12)c1ccc(Cl)cc1 [CBK263793] | 101.538
